# Measured values from the supplement of paper PMC4967469.
# Compound: CCn1cc(-c2ccnc3[nH]c(-c4cccc(CN(C)C)c4)cc23)c(-c2ccc(NC(=O)N(C)C)cc2)n1 [GSK1070916]
# Assay: Viability of human cancer cell lines after 72 h of drug (GDSC screen)
# Conditions: top dose inferred
# Description: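 Human cancer cell lines in 384-well plates, medium with 10% serum, drug for 72 h over a 256-fold dose range (nine 2-fold or five 4-fold steps up to the top dose). Adherent lines were fixed and stained with the nucleic acid dye Syto60, suspension lines read with resazurin; signal relative to control wells, capped at 0 and 100%. One two-parameter sigmoid per drug and line, fitted in a mixed model over all curves with the slope shared within a line.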
Cell Line,AUC,IC50
"TGW (neuroblastoma, adherent, top dose 2.56 µM)",0.871,1850 nM
"23132-87 (stomach, adherent, top dose 2.56 µM)",0.981,> 2560 nM
"HL-60 (acute myeloid leukaemia, suspension, top dose 2.56 µM)",0.359,68.3 nM
"TE-1 (oesophagus, adherent, top dose 2.56 µM)",0.963,> 2560 nM
"K5 (thyroid, adherent, top dose 2.56 µM)",0.976,> 2560 nM
"KARPAS-422 (B-cell lymphoma, suspension, top dose 2.56 µM)",0.924,> 2560 nM
"TE-6 (oesophagus, adherent, top dose 2.56 µM)",0.985,> 2560 nM
"SW156 (kidney, adherent, top dose 2.56 µM)",0.982,> 2560 nM
"SU-DHL-5 (B-cell lymphoma, suspension, top dose 2.56 µM)",0.032,< 10 nM
"ARH-77 (myeloma, suspension, top dose 2.56 µM)",0.886,> 2560 nM
"NCI-H661 (large cell lung carcinoma, adherent, top dose 2.56 µM)",0.948,> 2560 nM
"VA-ES-BJ (soft tissue, adherent, top dose 2.56 µM)",0.971,> 2560 nM
"Hs940-T (melanoma, adherent, top dose 2.56 µM)",0.964,> 2560 nM
"NCI-H2023 (lung adenocarcinoma, adherent, top dose 2.56 µM)",0.964,> 2560 nM
"NCI-H2342 (lung adenocarcinoma, adherent, top dose 2.56 µM)",0.983,> 2560 nM
"ES4 (Ewing sarcoma, adherent, top dose 2.56 µM)",0.752,959 nM

Cell Line,AUC,IC50
"NCI-H1944 (lung adenocarcinoma, adherent, top dose 2.56 µM)",0.861,2410 nM
"Hs683 (glioma, adherent, top dose 2.56 µM)",0.9,> 2560 nM
"H2461 (mesothelioma, adherent, top dose 2.56 µM)",0.974,> 2560 nM
"DU-145 (prostate, adherent, top dose 2.56 µM)",0.983,> 2560 nM
"MDA-MB-361 (breast, adherent, top dose 2.56 µM)",0.988,> 2560 nM
"KP-1N (pancreas, adherent, top dose 10.24 µM)",0.564,967 nM
"LB771-HNC (head and neck, adherent, top dose 2.56 µM)",0.963,> 2560 nM
"J82 (bladder, adherent, top dose 2.56 µM)",0.981,> 2560 nM
"OVKATE (ovary, adherent, top dose 2.56 µM)",0.928,> 2560 nM
"Capan-2 (pancreas, adherent, top dose 2.56 µM)",0.984,> 2560 nM
"ESS-1 (endometrium, adherent, top dose 2.56 µM)",0.936,> 2560 nM
"HCC1806 (breast, adherent, top dose 2.56 µM)",0.986,> 2560 nM
"RC-K8 (B-cell lymphoma, suspension, top dose 2.56 µM)",0.993,> 2560 nM
"NCI-H345 (small cell lung carcinoma, suspension, top dose 2.56 µM)",0.99,> 2560 nM
"SIG-M5 (acute myeloid leukaemia, suspension, top dose 2.56 µM)",0.157,21.5 nM
"NCI-H2227 (small cell lung carcinoma, semi-adherent, top dose 2.56 µM)",0.161,12.3 nM

# A lower IC50 marks a more sensitive line; a limit (>, <) means that the fit lies beyond the doses tested. AUC sums up the same curve from the lowest dose to the 256-fold higher top dose; values near 1 show little effect. Any top dose called inferred comes from the curve model; the source does not state it.
